Laboratory results: PubChem BioAssay AID686971 (National Center for Advancing Translational Sciences (NCATS), 2013)
Out of some 360,000 compounds screened, about 7,500 (2.1%) were called active. The shares of active, inactive and inconclusive entries below differ from those in the screen. Calls come from the whole dose curve; as a rule, active = well fitted cell-killing curve with a large enough effect; inconclusive = small, poorly fitted or top-dose-only effect, or effect the other way, or another doubt; inactive = no such curve, though single readings can be large or run the other way. Potencies of inconclusive entries are left out as doubtful fits.

Test: qHTS for induction of synthetic lethality in tumor cells producing 2HG: qHTS for the HT-1080-IDH1KD cell line;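 for activity, negative = toxicity: 0% = DMSO wells and -100% = cell-free medium wells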
Settings: HT-1080 IDH1 knockdown viability, ATP luminescence, 48 h; activity, negative = toxicity: at 46.1 µM (top of the series) unless noted
How it was run: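 % activity derives from luminescence (CellTiter-Glo), normalised to DMSO and no-cell wells. HT-1080-IDH1KD cells, 750/well, had 48 h compound exposure at 37 °C.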
Potency is the fitted concentration of half-maximal effect; tags give direction and shape of the fitted curve.

Row | SMILES | Potency | activity, negative = toxicity
1 | COc1ccc(CC(=O)NNC(=S)NC(=O)c2cccnc2)cc1 | inactive | –
2 | CC(NC(=O)C(C)(C)C)C(c1cccs1)N1CCOCC1 (configuration not stated) | inactive | –
3 | CCOCc1c(C(=O)Nc2ccc3nc(N4CCOCC4)sc3c2)oc2ccccc12 | inactive | –
4 | COc1cccc(NC(=O)CN(C)C(=O)c2cc(S(=O)(=O)N3CCCCC3)ccc2Cl)c1 | inactive | –
5 | C=CCC[C@@H](CCCCC)OC(=O)/C=C/[C@H](O)[C@@H](O)C[C@@H](O)CC=C | inconclusive [cytotoxic, single point] | –
6 | CC(C)n1c(SCc2ccccc2F)nc2c1c(=O)n(C)c(=O)n2C | inactive | –
7 | CN1CCC(=NNC(=O)c2ccc(N(Cc3ccccc3Cl)S(C)(=O)=O)cc2)CC1 | – | inconclusive: 26%
8 | CC(C)NC(=O)C1(C)CCN1C(=O)Cc1ccc(-c2ccccc2)cc1 (configuration not stated) | inconclusive [cytotoxic, single point] | –
9 | N/C(=N\OC(=O)c1cc([N+](=O)[O-])ccc1Cl)c1ccccn1 | inconclusive [cytotoxic, single point] | –
10 | O=C(CSc1nnnn1-c1ccccc1)Nc1nsc(-c2ccccc2)n1 | inconclusive [cytotoxic, single point] | –
11 | CC(=O)N1N=C(c2ccccc2)CC1c1cn(Cc2ccccc2)c2ccccc12 (configuration not stated) | inconclusive [cytotoxic, single point] | –
12 | COc1ccc(OC)c(C(=O)c2coc3cc(Br)c(O)c(Br)c23)c1 | inconclusive [cytotoxic, single point] | –
13 | COc1ccccc1CNC(=O)CCNC(=O)C1CCN(S(=O)(=O)c2ccccc2)CC1 | inactive | –
14 | Oc1ccc(NCc2cccs2)cc1 | inconclusive [cytotoxic, single point] | –
15 | CCCCOc1ccc(Cc2c(Cl)nc(SC)nc2N2CCOCC2)cc1 | inactive | –
16 | CCCCc1ccc(NC(=O)CSc2nc(=O)n(CCN(C)C)c3c2CCC3)cc1 | active: 14.6 µM | –
17 | COc1ccc(CNCCC(c2ccc(F)cc2)c2ccc(OC)cc2)cc1 (configuration not stated) | active: 20.6 µM | –
18 | Cc1cccc(NC(=O)c2cccc(N3C(=O)CCC3=O)c2)c1 | inactive | –
19 | CCOC(=O)c1ccc(NC(=S)NCCc2ccc(OC)c(OC)c2)cc1 | inconclusive [cytotoxic, single point] | –
20 | COc1ccc2c(-c3ccccc3)cc(SCC(N)=O)nc2c1 | inconclusive [cytotoxic, single point] | –
21 | CCCN(C(=O)CSc1ncnc2sccc12)c1c(N)n(Cc2ccccc2)c(=O)[nH]c1=O | inactive | –
22 | Cc1cc(Br)ccc1NC(=O)CNC(=O)Cn1ncc(Cl)c(Cl)c1=O | active: 2.59 µM | –
